{
  "source": "PubChem BioAssay AID1347073",
  "about": "(National Center for Advancing Translational Sciences (NCATS), 2019)",
  "note": "The campaign covered roughly 45,000 compounds. About 200 (0.44%) were called active. Inconclusive results (about 7%) are left out. Calls come from the whole dose curve; as a rule, active = well fitted activation curve with a large enough effect; inconclusive = small, poorly fitted or top-dose-only effect; inactive = no such curve, though single readings can be large or run the other way. The list shows a part of the results.",
  "data": [
    {"assay": "qHTS of TDP-43 Inhibitors: NCGC Sytravon Library Screen; note: 0% is about no effect; nearly all actives have a fitted effect of over 55% in size", "settings": "yeast TDP-43 toxicity rescue, BacTiter-Glo growth, 24 h; series mostly up to 46.1 µM; growth rescue (activation): at the top concentration", "procedure,_shortened": "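TDP-43-expressing yeast, pregrown in raffinose, seeded at OD600 0.02 in galactose medium with compound for 24 hr at 30 deg C. Growth read by BacTiter-Glo luminescence, so rescue of toxicity appears as activation.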", "values": [
      {"compound": "CC(C)c1ccccc1OCC(=O)Nc1ccccc1C(=O)N1CCOCC1", "growth rescue (activation)": "inactive: 10.6%"},
      {"compound": "CC(=O)Oc1cccc(N2C(=O)c3ccc(C(=O)Nc4c[nH]c(=O)[nH]c4=O)cc3C2=O)c1", "growth rescue (activation)": "inactive: 0.403%"},
      {"compound": "Cc1ccc(NC(=O)C2CCN(S(=O)(=O)c3cccs3)CC2)cc1", "growth rescue (activation)": "inactive: 24.5%"},
      {"compound": "O=C(N/N=C/C1CC=CCC1)c1cc(Br)ccc1O", "note": "(stereo not given)", "growth rescue (activation)": "inactive: -4.54%"},
      {"compound": "CC1(C(=O)Nc2cnc3ccccc3c2)CCN1Cc1ccccc1OC(F)F", "note": "(stereo not given)", "growth rescue (activation)": "inactive: 15.5%"},
      {"compound": "Cc1nn(CC(=O)Nc2ccc(N3CCOCC3)cc2)c(C)c1[N+](=O)[O-]", "growth rescue (activation)": "inactive: 11.2%"},
      {"compound": "Cc1nc(NC(=O)C(Cl)Cl)sc1C(=O)N(C)C", "growth rescue (activation)": "inactive: 5.91%"},
      {"compound": "O=C(Nc1ccc(Br)cc1)c1ccc(F)c(S(=O)(=O)N2CCN(c3ccccn3)CC2)c1", "growth rescue (activation)": "inactive: -8.81%"},
      {"compound": "C/C(=N\\NC(=S)NCc1ccccc1)c1ccccc1F", "growth rescue (activation)": "inactive: 31.7%"},
      {"compound": "Cc1cccc(OCC(=O)Nc2ccc(N3CCN(C(=O)c4ccco4)CC3)cc2)c1C", "growth rescue (activation)": "inactive: 20%"},
      {"compound": "Cc1cccc(/C(N)=N/OC(=O)C23CC4CC(CC(C4)C2)C3)c1", "growth rescue (activation)": "inactive: -52.5%"},
      {"compound": "O=C(O)c1cccc(NC(=O)c2cc(S(=O)(=O)N3CCOCC3)cs2)c1", "growth rescue (activation)": "inactive: -20.2%"},
      {"compound": "CC1(C)CC(NC(=O)COc2ccc([N+](=O)[O-])cc2)CC(C)(C)N1", "growth rescue (activation)": "inactive: 9.34%"},
      {"compound": "COc1ccc(NC(=O)c2ccccn2)cc1S(=O)(=O)N1CCOCC1", "growth rescue (activation)": "inactive: -10.6%"},
      {"compound": "COc1ccc(/C=C2\\SC(=S)N(CCC(=O)N3CCCCC3)C2=O)cc1", "growth rescue (activation)": "inactive: 16.7%"},
      {"compound": "COc1cccc(NC(=O)COc2cccnc2[N+](=O)[O-])c1", "growth rescue (activation)": "inactive: -5.85%"},
      {"compound": "Cc1c(Cl)c([N+](=O)[O-])nn1CC(=O)N1CCN(Cc2ccccc2)CC1", "growth rescue (activation)": "inactive: 1.63%"},
      {"compound": "O=C(Nc1ccc(NC(=O)c2ccccc2Cl)cc1)c1cccnc1", "growth rescue (activation)": "inactive: 3.47%"},
      {"compound": "Cc1[nH]c(=S)c(C#N)c2c1CCCC2", "growth rescue (activation)": "inactive: -17.4%"},
      {"compound": "COc1cc(CNCc2ccccn2)ccc1OCc1ccccc1Cl", "growth rescue (activation)": "inactive: -3.99%"},
      {"compound": "CC1CCCN(CC(O)COC(c2ccccc2)c2ccccc2)C1", "note": "(stereo not given)", "growth rescue (activation)": "inactive: -1.51%"},
      {"compound": "CC(NC(=O)CNC(=O)c1ccco1)c1ccc(S(N)(=O)=O)cc1", "note": "(stereo not given)", "growth rescue (activation)": "inactive: -14%"},
      {"compound": "CCC1(c2ccc(F)cc2)NC(=O)NC1=O", "note": "(stereo not given)", "growth rescue (activation)": "inactive: 5.3%"},
      {"compound": "CCc1c(C(=O)N/N=C/c2sccc2C)nnn1-c1nonc1N", "growth rescue (activation)": "inactive: -8.36%"},
      {"compound": "O=C(NC1=NCCS1)c1ccc(N2CCCC2=O)cc1", "growth rescue (activation)": "inactive: 3.95%"},
      {"compound": "Cc1nc2c(Cl)c(C)nn2c2c1CCC2", "growth rescue (activation)": "inactive: 30%"},
      {"compound": "Cc1ccccc1S(=O)(=O)NC(=O)C1(C)CCN1C(=O)Cc1ccc(C(C)(C)C)cc1", "note": "(stereo not given)", "growth rescue (activation)": "inactive: 16.5%"},
      {"compound": "CN(C)/N=C/c1ccc(/C=N/NC(N)=S)o1", "growth rescue (activation)": "inactive: 9.43%"},
      {"compound": "Cc1nn(C)c(C)c1Nc1ccc(N2C(=O)C3CC=CCC3C2=O)cc1[N+](=O)[O-]", "note": "(stereo not given)", "growth rescue (activation)": "inactive: 8.31%"},
      {"compound": "NS(=O)(=O)c1ccc(CCNC(=O)c2ccc(Br)s2)cc1", "growth rescue (activation)": "inactive: -21.4%"}
    ]}
  ]
}
